Laboratory results from the supplement of paper PMC4604168 (melanoma cell lines).
The other results are listed elsewhere or left out. Single values are uncertain, as repeats are few or missing.

Tests used:
Assay in all cases: cell count relative to DMSO control; melanoma cells; higher = more viable cells
Conditions in all cases: library dose: standard library concentration; 72 h
G361 = test system: G361
IPC-298 = test system: IPC-298
IST-MEL1 = test system: IST-MEL1
LB2518-MEL = test system: LB2518-MEL
LOXIMVI = test system: LOXIMVI
MEL-HO = test system: MEL-HO
MZ2-MEL = test system: MZ2-MEL
MeWo = test system: MeWo
RPMI7951 = test system: RPMI7951
RVH-421 = test system: RVH-421
SkMel28 = test system: SkMel28
SkMel2 = test system: SkMel2
SkMel30 = test system: SkMel30
SkMel5 = test system: SkMel5
UACC257 = test system: UACC257
UACC62 = test system: UACC62
WM115 = test system: WM115
WM1716 = test system: WM1716
WM3526 = test system: WM3526
WM1745 = test system: WM1745
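Also: cells treated in 1,536-well plates, then fixed and DAPI-stained, with nuclei counted from automated high-throughput microscope images.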

| SMILES | cell count (G361) [%] | cell count (IPC-298) [%] | cell count (IST-MEL1) [%] | cell count (LB2518-MEL) [%] | cell count (LOXIMVI) [%] | cell count (MEL-HO) [%] | cell count (MZ2-MEL) [%] | cell count (MeWo) [%] | cell count (RPMI7951) [%] | cell count (RVH-421) [%] | cell count (SkMel28) [%] | cell count (SkMel2) [%] | cell count (SkMel30) [%] | cell count (SkMel5) [%] | cell count (UACC257) [%] | cell count (UACC62) [%] | cell count (WM115) [%] | cell count (WM1716) [%] | cell count (WM3526) [%] | cell count (WM1745) [%] |
| --- | --- | --- | --- | --- | --- | --- | --- | --- | --- | --- | --- | --- | --- | --- | --- | --- | --- | --- | --- | --- |
| O=c1[nH]nc(Sc2ncc([N+](=O)[O-])s2)n1-c1ccc2c(c1)OCCO2 + CCN(CC)CCCCNc1ncc2cc(-c3cc(OC)cc(OC)c3)c(NC(=O)NC(C)(C)C)nc2n1 [PD173074] (first compound 1 µM, partner dose 0.5 µM) | 117 | 118 | 101 | 118 | 119 | 118 | 102 | 93.8 | 116 | 89.8 | 105 | 97.1 | 119 | 76.8 | 107 | 64.8 | 94.4 | 114 | 106 |  |
| O=c1[nH]nc(Sc2ncc([N+](=O)[O-])s2)n1-c1ccc2c(c1)OCCO2 + CS(=O)(=O)CCNCc1ccc(-c2ccc3ncnc(Nc4ccc(OCc5cccc(F)c5)c(Cl)c4)c3c2)o1 [lapatinib] (first compound 1 µM, partner dose 4 µM) | 82.3 | 88.4 | 102 |  | 95.5 | 84 |  | 66.4 | 58.2 | 74.2 | 78.9 | 92.6 | 72.9 | 68.7 | 90.4 | 46.1 | 85.7 | 92.3 | 79.6 | 81.6 |
| O=c1[nH]nc(Sc2ncc([N+](=O)[O-])s2)n1-c1ccc2c(c1)OCCO2 + CC(=O)c1c(C)c2cnc(Nc3ccc(N4CCNCC4)cn3)nc2n(C2CCCC2)c1=O [palbociclib] (first compound 1 µM, partner dose 0.2 µM) | 65.3 | 68.8 | 77.8 | 65.9 | 82.7 | 74.4 | 64.9 | 55.3 | 69 | 77.3 | 69.6 | 69 | 82.5 | 63.7 | 83.7 | 62.5 | 54.5 | 43 | 61.5 | 75.4 |
| O=c1[nH]nc(Sc2ncc([N+](=O)[O-])s2)n1-c1ccc2c(c1)OCCO2 + CC(C)CCN1c2nc(Nc3cc(F)c(O)c(F)c3)ncc2N(C)C(=O)C1C [BID1870] (first compound 1 µM, partner dose 1 µM) | 77.1 | 94.8 | 90.5 | 106 | 79.3 | 81 | 115 | 79.4 | 73.5 | 71.2 | 69 | 82.7 | 67.9 | 86.4 | 99 | 82.6 | 92.5 | 91.9 | 62.8 |  |
| O=c1[nH]nc(Sc2ncc([N+](=O)[O-])s2)n1-c1ccc2c(c1)OCCO2 + COc1ccc(-c2ccc3c(N4CCOCC4)nc(N4C[C@@H](C)O[C@@H](C)C4)nc3n2)cc1CO [KU0063794] (first compound 1 µM, partner dose 0.1 µM) | 86.2 | 71.5 | 93.2 | 83 | 108 | 83.6 | 92.5 | 90.4 | 97.1 | 40.6 | 111 | 82.4 | 110 | 71.7 | 102 | 78.1 | 90.5 | 108 | 84.4 |  |
| O=c1[nH]nc(Sc2ncc([N+](=O)[O-])s2)n1-c1ccc2c(c1)OCCO2 + CS(=O)(=O)c1ccc(C(=O)Nc2ccc(Cl)c(-c3ccccn3)c2)c(Cl)c1 [vismodegib] (first compound 1 µM, partner dose 5 µM) | 92.5 | 88.3 | 104 |  | 113 | 87.4 |  | 107 | 118 | 274 | 118 | 105 | 101 | 89.7 | 107 | 65.8 | 94.3 | 130 | 101 | 118 |
| O=c1[nH]nc(Sc2ncc([N+](=O)[O-])s2)n1-c1ccc2c(c1)OCCO2 + C=CCn1c(=O)c2cnc(Nc3ccc(N4CCN(C)CC4)cc3)nc2n1-c1cccc(C(C)(C)O)n1 [MK1775] (first compound 1 µM, partner dose 0.1 µM) | 87.1 | 84.6 | 76 |  | 95.9 | 93.9 |  | 76.3 | 60.9 | 71.5 | 55.6 |  | 86.8 | 60.9 | 91.5 | 64.2 | 65.5 | 81.9 | 78.7 | 59.8 |
| O=C(Nc1cccc(Cl)c1)Nc1ncc(CCNc2ncnc3ccsc23)s1 + O=C(O)c1ccc(-c2c[nH]c3ncc(-c4ccccc4)cc23)cc1C1CCCC1 [GSK650394] (first compound 0.004 µM, partner dose 0.8 µM) | 55.7 | 66.6 | 46.2 |  | 80 | 64.4 |  | 54.6 | 49.5 | 73.2 | 33.5 |  | 66.4 | 80.2 | 63.9 | 70.3 | 44.9 | 44.3 | 64.5 | 72.9 |
| COc1cc(Nc2ncc(F)c(Nc3ccc4c(n3)NC(=O)C(C)(C)O4)n2)cc(OC)c1OC [Tamatinib] + CC(C)CCN1c2nc(Nc3cc(F)c(O)c(F)c3)ncc2N(C)C(=O)C1C [BID1870] (first compound 2 µM, partner dose 1 µM) | 44 | 81.5 | 48.9 | 83.4 | 63.2 | 48.3 | 82.8 | 45 | 22.4 | 71.4 | 50 | 76.7 | 53.7 | 62.3 | 76.9 | 81.2 | 75.7 | 47.6 | 64.2 | 36.1 |
| O=C(Nc1cccc(Cl)c1)Nc1ncc(CCNc2ncnc3ccsc23)s1 + CN(NC(=O)CC(=O)NN(C)C(=S)c1ccccc1)C(=S)c1ccccc1 [STA4783] (first compound 0.004 µM, partner dose 0.03 µM) | 37.3 | 53.5 | 25.9 |  | 45.3 | 52.6 |  | 16.8 | 49.2 | 57.3 | 22.2 |  | 76.8 | 44.4 | 68.8 | 45.5 | 26.9 | 49.4 | 50.3 | 27.8 |
